Data taken from patent US11098051B2 (priority 2016, dated 2021).

Tests used:
[1] = system: influenza virus H1N1 (NA_VIR_H1N1); assay: microbe, parasite or virus in culture; assay type: cell-based; conditions: unidentified influenza virus, H1N1, MDCK, read-out: NA_VIR_H1N1 EC50
[2] = system: influenza virus H3N2 (NA_VIR_H3N2); assay: microbe, parasite or virus in culture; assay type: cell-based; conditions: unidentified influenza virus, H3N2, MDCK, read-out: NA_VIR_H3N2 EC50

Compound	EC50 [1] [nM]	EC50 [2] [nM]
O=C1c2c(O)c(=O)cnn2C(C(c2ccccc2)c2ccccc2)C2OCCCN12 (single isomer, unassigned) [Example 19B, 12-benzhydryl-7-hydroxy-3,4,12,12a-tetrahydro-2H-pyridazino[1′,6′:4,5]pyrazino[2,1-b][1,3]oxazine-6,8-dione]	400	1900
O=C1c2c(O)c(=O)cnn2C(C(c2ccccc2)c2ccccc2)N2CCCCN12 (centres unmarked) [Example 1, 12-benzhydryl-4-hydroxy-7,8,9,10-tetrahydro-12H-dipyridazino[1,2-a:1′,6′-d][1,2,4]triazine-3,5-dione]	220	1000
O=C1c2c(O)c(=O)cnn2C(C(c2cccc(F)c2)c2cccc(F)c2)N2CCCCN12 (centres unmarked) [Example 2, 12-(bis(3-fluorophenyl)methyl)-4-hydroxy-7,8,9,10-tetrahydro-12H-dipyridazino[1,2-a:1′,6′-d][1,2,4]triazine-3,5-dione]	85	550
O=C1c2c(O)c(=O)cnn2C(C(c2ccc(Cl)cc2)c2ccc(Cl)cc2)N2CCCCN12 (centres unmarked) [Example 3, 12-(bis(4-chlorophenyl)methyl)-4-hydroxy-7,8,9,10-tetrahydro-12H-dipyridazino[1,2-a:1′,6′-d][1,2,4]triazine-3,5-dione]	660	1500
O=C1c2c(O)c(=O)cnn2C(C(c2cccc(Cl)c2)c2cccc(Cl)c2)N2CCCCN12 (centres unmarked) [Example 4, 12-(bis(3-chlorophenyl)methyl)-4-hydroxy-7,8,9,10-tetrahydro-12H-dipyridazino[1,2-a:1′,6′-d][1,2,4]triazine-3,5-dione]	84	380
O=C1c2c(O)c(=O)cnn2C(C(c2ccc(F)cc2)c2ccc(F)cc2)N2CCCCN12 (centres unmarked) [Example 5, 12-(bis(4-fluorophenyl)methyl)-4-hydroxy-7,8,9,10-tetrahydro-12H-dipyridazino[1,2-a:1′,6′-d][1,2,4]triazine-3,5-dione]	190	790
O=C1c2c(O)c(=O)cnn2C(C(c2ccccc2)c2ccccc2)N2CCCCCN12 (centres unmarked) [Example 6, 13-benzhydryl-4-hydroxy-8,9,10,11-tetrahydro-7H,13H-pyridazino[1′,6′:4,5][1,2,4]triazino[1,2-a][1,2]diazepine-3,5-dione]	820	2100
O=C1c2c(O)c(=O)cnn2C(C(c2cccc(F)c2)c2cccc(F)c2)N2CCCCCN12 (centres unmarked) [Example 7, 13-(bis(3-fluorophenyl)methyl)-4-hydroxy-8,9,10,11-tetrahydro-7H,13H-pyridazino[1′,6′:4,5][1,2,4]triazino[1,2-a][1,2]diazepine-3,5-dione]	590	1600
O=C1c2c(O)c(=O)cnn2[C@H](C(c2cccc(F)c2)c2cccc(F)c2)N2CCCCN12 [Example 8, (R)-12-(bis(3-fluorophenyl)methyl)-4-hydroxy-7,8,9,10-tetrahydro-12H-dipyridazino[1,2-a:1′,6′-d][1,2,4]triazine-3,5-dione]	–	1600
O=C1c2c(O)c(=O)cnn2[C@@H](C(c2cccc(F)c2)c2cccc(F)c2)N2CCCCN12 [Example 9, (S)-12-(bis(3-fluorophenyl)methyl)-4-hydroxy-7,8,9,10-tetrahydro-12H-dipyridazino[1,2-a:1′,6′-d][1,2,4]triazine-3,5-dione]	33	170
O=C1c2c(O)c(=O)cnn2[C@@H]([C@H](c2ccccc2)c2cccc(F)c2)[C@H]2CCCN12 [Example 14, (9aR,10S)-10-((R)-(3-fluorophenyl)(phenyl)methyl)-4-hydroxy-8,9,9a,10-tetrahydro-7H-pyrrolo[1′,2′:4,5]pyrazino[1,2-b]pyridazine-3,5-dione]	84	450
O=C1c2c(O)c(=O)cnn2[C@H](C(c2cccc(F)c2)c2cccc(F)c2)[C@H]2CCCN12 [Example 15, (9aR,10R)-10-(bis(3-fluorophenyl)methyl)-4-hydroxy-8,9,9a,10-tetrahydro-7H-pyrrolo[1′,2′:4,5]pyrazino[1,2-b]pyridazine-3,5-dione]	17000	30000
O=C1c2c(O)c(=O)cnn2[C@@H](C(c2cccc(F)c2)c2cccc(F)c2)[C@H]2CCCN12 [Example 16, (9aR,10S)-10-(bis(3-fluorophenyl)methyl)-4-hydroxy-8,9,9a,10-tetrahydro-7H-pyrrolo[1′,2′:4,5]pyrazino[1,2-b]pyridazine-3,5-dione]	110	440
O=C1c2c(O)c(=O)cnn2[C@H]([C@@H](c2ccccc2)c2cccc(Cl)c2)[C@@H]2CCCN12 [Example 17, (9aS,10R)-10-((S)-(3-chlorophenyl)(phenyl)methyl)-4-hydroxy-8,9,9a,10-tetrahydro-7H-pyrrolo[1′,2′:4,5]pyrazino[1,2-b]pyridazine-3,5-dione]	250	1500
O=C1c2c(O)c(=O)cnn2[C@H](C(c2ccccc2)c2ccccc2)[C@H]2COCCN12 [Example 18, (10aS,11R)-11-benzhydryl-4-hydroxy-7,8,10a,11-tetrahydro-10H-pyridazino[1′,6′:4,5]pyrazino[2,1-c][1,4]oxazine-3,5-dione]	4400	21000
